The supplement of paper PMC12217912
This is one part of the list. Sequences were assembled here from the parent chain. Values near 0.05 are background.

B1: TEV protease; numbered along this chain (parent)
chain: MGESLFKGPRDYNPISSSICHLTNESDGHTTSLYGIGFGPFIITNKHLFRRNNGTLVVQSLHGVFKVKDTTTLQQHLVDGRDMIIIRMPKDFPPFPQKLKFREPQREERICLVTTNFQTKSMSSMVSDTSCTFPSGDGIFWKHWIQTKDGQCGSPLVSTRDGFIVGIHSASNFTNTNNYFTSVPKNFMELLTNQEAQQWVSGWRLNADSVLWGGHKVFMVKPEEPFQPVKEATQL

Variants of: B1
Experiment: raw area under fraction-flipped curve 0-4 h after induction (AUC4h, not background-subtracted), DNA-recorder readout of cleavage of the substrate (dimensionless); higher = more cleavage of the substrate by the protease variant
Conditions: temperature: 34 °C; time window: 0-4 h after rhamnose induction
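Further: Bxb1 expression induced with 0.2% (w/v) L-rhamnose at OD600 near 0.5, cultures sampled hourly, flipped fraction per protease–substrate barcode pair counted by paired-end Illumina sequencing.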

Variant	area with substrate SNLYFQS	area with substrate TNLYFQS	area with substrate WNLYFQS	area with substrate RNLYFQS	area with substrate QNLYFQS	area with substrate YNLYFQS	area with substrate PNLYFQS
MGESLFKGPRDYNPISSSICHLTNESDGHTTSLYGIGFGPFIITNKHLFRRNNGTLVVQSLHGVFKVKDTTTLQQHLVDGRDMIIIRMPKDFPPFPQKLKFREPQREERICLVTTNFQTKSMSSMVSDTSCTFPSGDFIFWKHWIQTKDGQCGSPLVSTRDGFIVGIHSASNFTNTNNYFTSVPKNFMELLTNQEAQQWVSGWRLNADSVLWGGHKVFMVKPEEPFQPVKEATQL [G138F]	0.0589	0.0705	0.0515				
MGESLFKGPRDYNPISSSICHLTNESDGHTTSLYGIGFGPFIITNKHLFRRNNGTLVVQSLHGVFKVKDTTTLQQHLVDGRDMIIIRMPKDFPPFPQKLKFREPQREERICLVTTNFQTKSMSSMVSDTSCTFPSGDPIFWKHWIQTKDGQCGSPLVSTRDGFIVGIHSASNFTNTNNYFTSVPKNFMELLTNQEAQQWVSGWRLNADSVLWGGHKVFMVKPEEPFQPVKEATQL [G138P]	0.0593	0.0659		0.0453			
MSESLFKGPRDYNPISSSICHLTNESDGHTTSLYGIGFGPFIITNKHLFRRNNGTLVVQSLHGVFKVKDTTTLQQHLVDGRDMIIIRMPKDFPPFPQKLKFREPQREERICLVTTNFQTKSMSSMVSDTSCTFPSGDGIFWKHWIQTKDGQCGSPLVSTRDGFIVGIHSASNFTNTNNYFTSVPKNFMELLTNQEAQQWVSGWRLNADSVLWGGHKVFMVKPEEPFQPVKEATQL [G2S]					0.0533		
MGESLFKGPRDYNPISSSICHLTNESDGHTTSLYIIGFGPFIITNKHLFRRNNGTLVVQSLHGVFKVKDTTTLQQHLVDGRDMIIIRMPKDFPPFPQKLKFREPQREERICLVTTNFQTKSMSSMVSDTSCTFPSGDGIFWKHWIQTKDGQCGSPLVSTRDGFIVGIHSASNFTNTNNYFTSVPKNFMELLTNQEAQQWVSGWRLNADSVLWGGHKVFMVKPEEPFQPVKEATQL [G35I]	0.0667						
MGESLFKGPRDYNPISSSICHLTNESDGHTTSLYGIGFGPFIITNKHLFRRNNGTLVVQSLHGVFKVKDTTTLQQHLVDGRDMIIIRMPKDFPPFPQKLKFREPQREERICLVTTNFQTKSMSSMVSDTSCTFPSGDGIFWKHWIQTKDGQCGSPLVSTRDGFIVGIHSASNFINTNNYFTSVPKNFMELLTNQEAQQWVSGWRLNADSVLWGGHKVFMVKPEEPFQPVKEATQL [T174I]		0.0382	0.0496			0.0725	
MGESLFKGPRDYNPISSSICHLTNESDGHTTSLYGIGFGPFIITNKHLFRRNNGTLVVQSLHGVFKVKDTTTLQQHLVDGRDMIIIRMPKDFPPFPQKLKFREPQREERICLVTTNFQTKSMSSMVSDTSCTFPSGDGIFWKHWIQTKDGQCGSPLVSTRDGFIVGIHSASNFTNTNNYFTSVPKNFMELLTNQEAQQWVSGWRLNADSVLWGGIKVFMVKPEEPFQPVKEATQL [H215I]		0.0606				0.0531	
MGESLFKGPRDYNPISSSICHLTNESDGHTTSLYGIGFGPFIITNKHLFRRNNGTLVVQSLHGVFKVKDTTTLQQHLVDGRDMIIIRMPKDFPPFPQKLKFREPQREERICLVTTNFQTKSMSSMVSDTSCTFPSGDGIFWKHWIQTKDGQCGSPLVSTRDGFIVGIHSRSNFTNTNNYFTSVPKNFMELLTNQEAQQWVSGWRLNADSVLWGGHKVFMVKPEEPFQPVKEATQL [A170R]		0.0595				0.0545	
MGESLFKGPRDYNPISSSICHLTNESDGHTTSLYGIGFGPFIITNKHLFRRNNGTLVVQSLHGVFKVKDTTTLQQHLVDGRDMIIIRMPKDFPPFPQKLKFREPQREERICLVTTNFQTKSMSSMVSDTSWTFPSGDGIFWKHWIQTKDGQCGSPLVSTRDGFIVGIHSASNFTNTNNYFTSVPKNFMELLTNQEAQQWVSGWRLNADSVLWGGHKVFMVKPEEPFQPVKEATQL [C131W]		0.0573					0.0581
MGESLFKGPRDYNPISSSICHLTNESDGHTTSLYGIGFGPFIITNKHLFRRNNGTLVVQSLHGVFKVKDTTTLQQHLVDGRDMIIIRMPKDFPPFPQKLKFREPQREERICLVTTNFQTKSMSSMVSDTSCTFPSGDGIFWKHWIQTKDGQCGSPLVSTRDGFIVGIHSASNFTNTNMYFTSVPKNFMELLTNQEAQQWVSGWRLNADSVLWGGHKVFMVKPEEPFQPVKEATQL [N178M]		0.0953					
MGESLFKGPRDYNPISSSICHLTNESDGHTTSLYGIGFGPFIITNKHLFRRNNGTLVVQSLHGVFKVKDTTTLQQHLVDGRDMIIIRMPKDFPPFPQKLKFREPQREERICLVTTNFQTKSMSSMVSDTSCTFPSGDGIFWKHWIQTKDGQCGSPLVSTRDGFIVGIHSASNFTNTNNYFTSVPKNFMELLTNQEAQQWVSGWRLNADSVLWHGHKVFMVKPEEPFQPVKEATQL [G213H]		0.0678				0.0428	
MGESLFKGPRDYNPISSSICHLTNESDGHTTSLYGIGFGPFIITNKHLFRRNNGTLVVQSLHGVFKVKDTTTLQQHLVDGRDMIIIRMPKDFPPFPQKLKFREPQREERICLVTTNFQTKSMSSMVSDTSCTFPSGDGIFWKHWIQTKDGQCGSPLVSTRDVFIVGIHSASNFTNTNNYFTSVPKNFMELLTNQEAQQWVSGWRLNADSVLWGGHKVFMVKPEEPFQPVKEATQL [G162V]				0.0491			
MGESLFKGPRDYNPISSSICHLTNESDGHTTSLYGIGFGPFIITNKHLFRRNNGTLVVQSLHGVFKVKDTTTLQQHLVDGRDMIIIRMPKDFPPFPQKLKFREPQREERICLVTTNFQTKSMSSMVSDTSCTFPSGDGIFWKHWIQTKDGQCGSPLVSTRDGFVVGIHSASNFTNTNNYFTSVPKNFMELLTNQEAQQWVSGWRLNADSVLWGGHKVFMVKPEEPFQPVKEATQL [I164V]	0.0488						
MGESLFKGPRDYNPISSSICHLTNESDGHTTSLYGIGFGPFIITNKHLFRRNNGTLVVQSLHGVFKVKDTTTLQQHLVDGRDMIIIRMPKDFPPFPQKLKFREPQREERICLVTTNFQTKSMSSMVSDTSCTFPSGDGIFWKHWIQTKDGQCGSPLVSTRDGFIVGIHSASNFTNTNNYFCSVPKNFMELLTNQEAQQWVSGWRLNADSVLWGGHKVFMVKPEEPFQPVKEATQL [T181C]		0.0492	0.0557				
